Out of some 48,000 compounds screened, about 120 (0.25%) were called active. Not shown: some 4% with an inconclusive outcome. The call rests on the fitted dose curve; in most records, active means well fitted activation curve with a large enough effect; inconclusive means small, poorly fitted or top-dose-only effect, or another doubt; inactive means no such curve, though single readings can be large or run the other way. Some of the results follow.
Experiment: Primary qHTS for Identification of Small Molecule Activators of Huntingtin-Antisense Promoter Activity; further: nearly all actives have a fitted effect of over 55% in size
Settings: HEK293 HTT-AS promoter firefly luciferase reporter (activity 0% = vehicle and -100% = no light), 24 h; series mostly up to 57.5 µM; activity change, positive = activation: at the top concentration
Method in brief: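 Firefly luciferase signal from promoter-reporter HEK293 cells was scaled between vehicle (0%) and zero RLU (-100%). Compounds were tested at final concentrations of up to 57.5 uM over 24 h at 37 degrees C. PTC124 at 50 uM final served as control inhibitor.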

Activity change, positive = activation, inactive:
CC(=O)c1ccc(NC(=O)c2ccc(-n3cnnc3)cc2)cc1 -5.56%, COc1ccccc1-c1cc(C(=O)Nc2cc(OC)c(OC)c(OC)c2)no1 -24.9%, CCN(CC)CCCNC(=O)c1nn(C)c2c1CSc1ccccc1-2 -1.98%, CCN(CC)c1ccc(C(=O)NCc2ccc3c(c2)CCN3C(=O)c2ccc(F)cc2)cc1 -7.47%, Cc1ccc(-n2nc(C)c3c(C(=O)NCCc4ccccc4)cc(C)nc32)cc1 -15.6%, Cc1ccc(CNC(=O)c2ccc3c(c2)nc2n3CCOC2)cc1 -5.53%, COc1ccc(C(C)=O)cc1CSc1nc(NCCc2ccccc2)c2ccccc2n1 0.0818%, COc1ccc(C(=O)NNc2ncnc3c2cnn3-c2cccc(Cl)c2)cc1OC -38.6%, COc1ccc(NC(=O)CCc2nc3c(C)nn(-c4ccc(C)cc4)c3n(C)c2=O)cc1 2.62%, Cc1ccc(NC(=O)C2CCN(S(=O)(=O)c3c(C)noc3/C=C/c3cccs3)CC2)cc1F -33.1%, CCCS(=O)(=O)c1c(S(=O)(=O)CCC)c2cc(CC)ccn2c1C(=O)c1ccc(Cl)cc1 -21.3%, Cc1cccc(N(CC(=O)NCCSCc2cccc(Cl)c2)S(=O)(=O)c2ccccc2)c1C -37.6%, COc1ccc(Cl)cc1CNCCSc1nnnn1-c1ccccc1 4.5%, COc1ccc(C2NC(=O)N(C)C3=C2C(=O)N(c2cccc(C(=O)O)c2)C3)cc1 (stereo unspecified) -45.5%, CCOc1ccccc1NC(=O)CCNS(=O)(=O)c1cccc2nonc12 -19.3%, CC(C)Oc1ccc(C(=O)NCC(c2ccc(N(C)C)cc2)N2CCCC2)cc1 (stereo unspecified) 2.54%, Cc1ccc(C)c(NC(=O)Cn2cc(C(=O)c3cccs3)c3ccccc32)c1 -31.9%, COc1cc(C(=O)Nc2ccc3c(c2)N(C2CCCC2)C(=O)c2ccccc2S3)cc(OC)c1OC -20.4%, CCOc1ccccc1NC(=O)C1CCCN1S(=O)(=O)c1ccc2c(c1)C(C)(C)C(=O)N2C (stereo unspecified) -27.1%, Cc1cc(NC(=O)c2ccc3c(c2)OCCO3)cc(-c2nc3ccccc3o2)c1O -2.4%, Cc1ccc(NS(=O)(=O)c2cc(-c3cnc(C4CC4)o3)ccc2C)cc1Cl -36.4%, Nc1c(C(=O)Nc2ccccc2F)sc2nc3c(cc12)CCCCCC3 30.1%, COc1ccc(NC(=O)N2CCOc3ccc(Cl)cc32)cc1 1.33%, Cc1ccc(C(=O)COC(=O)c2cccc(NC(=O)c3ccc(Cl)cc3Cl)c2)cc1 -15.9%, CCC(C(=O)NCc1ccc(OC)c(OC)c1)n1nc(C)c2c(C)n(-c3ccc(C)cc3)nc2c1=O (stereo unspecified) -32.8%, CCOC(=O)c1c(NC(=O)c2cc3nc(-c4ccc(Br)cc4)cc(C(F)(F)F)n3n2)sc(C(C)=O)c1C -14%, COc1ccc(Cc2nc3c4cnn(-c5ccccc5F)c4ncn3n2)cc1 -8.89%, COc1ccc(Cl)cc1N(C)C(=O)c1cc2c(=O)oc3ccc(C)cc3c2s1 -31.2%, CCCCNC(=O)c1cc(-c2ccc(OC)cc2)nc2n[nH]c(-c3cccc([N+](=O)[O-])c3)c12 -1.05%, CCc1ccccc1NC(=O)CN1CCCN(Cc2cc(C)ccc2C)S1(=O)=O -32.6%, CCOC(=O)c1ccccc1NC(=O)CN1CCCN(Cc2cccc(Cl)c2)S1(=O)=O -33.7%, CCCc1nn2c(=O)cc(COC(=O)c3ccc(NC(=O)C4CCCCC4)cc3)nc2s1 -11.1%, CC(C)Cc1nn2c(=O)cc(COC(=O)c3ccccc3NC(=O)C3CCCCC3)nc2s1 -1.53%, Cc1ccc(S(=O)(=O)NCc2nc3cccnc3n2Cc2ccccc2Cl)c(C)c1 -24.3%, CCc1nnc2c(Nc3ccc(N(CC)CC)cc3C)nc3ccccc3n12 -6.96%, Cc1cc(S(=O)(=O)Nc2ccc(C(=O)O)cc2)c(C)c(S(=O)(=O)c2ccc(Cl)cc2)c1 -15%, COc1ccc(C)cc1NC(=O)c1cn(C)c(=O)c2cc(OC)c(OC)cc12 -7.72%, COc1cccc(NS(=O)(=O)c2ccc3c(c2)N(C)C(=O)CC(=O)N3C)c1 8.64%, COc1ccccc1NC(=O)CN1C(=O)c2ccccc2Sc2ccc(C(=O)N3CCCC3)cc21 -29.2%, CCc1ccccc1NC(=O)N1CC(C)Sc2ccccc21 (stereo unspecified) -19.8%, CC(=O)c1ccccc1OCC(O)Cn1c(CO)nc2ccccc21 (stereo unspecified) -6.2%, O=C(Nc1ccc(Br)cc1F)N1CC=C(c2c[nH]c3ccccc23)CC1 -23.2%, CC(=O)c1ccc(NC(=O)c2nc(-c3ccccc3)n(-c3ccccc3)n2)cc1 -14.2%, CC(CCc1ccccc1)NC(=O)CSc1n[nH]c(-c2ccc(F)cc2)n1 (stereo unspecified) -32.8%, COc1ccc(CNC(=O)CN2C(=O)CCn3nc(-c4ccccc4)cc32)c(OC)c1 -5.58%, Cc1cccc(Cn2cc(C(=O)Nc3cc(F)ccc3F)ccc2=O)c1 -18.4%, COc1ccc(-c2ccc(CCC(=O)O)n2-c2ccccc2O)cc1 19.2%, COc1ccc(C(=O)c2sc3nc(-c4ccc(F)cc4)ccc3c2N)cc1 -8.54%, COc1ccc(-c2nc(Cn3c(SCc4cccc(C(F)(F)F)c4)nc4cccnc43)c(C)o2)cc1OC -38.4%, Cc1oc2ncn(C)c(=O)c2c1C(=O)NCc1ccc(Cl)cc1 1.57%, Cn1c(Nc2ccc(Cl)cc2)cc(=O)n(C)c1=O -3.71%, CC1=C(C(=O)Nc2ccc(C)cc2C)C(c2ccc(O)cc2)n2nc(SCC(=O)c3ccc(C)cc3)nc2N1 (stereo unspecified) -12.5%, COc1ccc(-c2nn3c(=O)cc(CN4CCN(S(=O)(=O)c5ccc(C)cc5)CC4)nc3s2)cc1 -4.02%, Cc1cc(OCC(O)CN2CCN(c3cccc(Cl)c3)CC2)ccc1Cl (stereo unspecified) 0.638%, COc1ccc(C(=O)Nc2ccc(S(=O)(=O)N(Cc3ccccc3)c3ccccc3)cc2)cc1 -38.1%, COc1ccccc1C1C(C(=O)Nc2ccccc2)=C(C)Nc2nc(-c3ccccc3)nn21 (stereo unspecified) -14%, Nc1cccc(-c2cc3c(Oc4cccc(O)c4)ncnc3[nH]2)c1 -21.5%, CC(=O)N1CCc2cc(S(=O)(=O)NC(Cc3ccccc3)C(=O)Nc3cc(C)cc(C)c3)ccc21 (stereo unspecified) -2.42%, COc1ccccc1N1CCN(Cc2nc(-c3cc(OC)c(OC)c(OC)c3)no2)CC1 -30.4%, CC1CCCCN1CCCNC(=O)Cn1ncc2c3ccccc3n(Cc3ccccc3)c2c1=O (stereo unspecified) 0.937%, Cc1ccc(Cl)cc1N1CCN(C(=O)CCc2nnc3n(C)c(=O)c4ccccc4n23)CC1 -12.9%

Source: PubChem BioAssay AID1508624 (National Center for Advancing Translational Sciences (NCATS), 2021)
